Measured values from the supplement of paper PMC5499739.
The full ranking holds about 16,000 sequences; the median of “Z-score” is about -0.37, and the highest 2% start at about 3.1. This is one part of the list.

tested on: RBM10 RRM1-ZnF-RRM2 (GST-tagged construct); experiment: RNAcompete 7-mer binding Z-score; higher = stronger binding preference
Method: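 RNAcompete: 20 pmol GST-tagged RBM10 RNA-binding constructs were incubated with a designed RNA pool of about 241,000 sequences up to 41 nt (1.5 nmol) on glutathione beads for 30 min at 4 °C and washed. Bound RNAs were identified by microarray hybridisation. Each RNA 7-mer is scored by a one-sided Z-score of its enrichment, computed over probes that contain the 7-mer within longer pool sequences.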

Sequence	RNAcompete 7-mer binding Z-score
AUCUACU	-0.806
CGUAAAG	-0.0743
CGACUCA	-0.766
UAGUGUC	-0.402
CCAGCUA	-0.719
UUCUACG	-0.73
ACUGACA	-0.42
AGCUCCC	-0.639
CUUCCUC	-0.85
GCUAUGC	-0.522
AGGCCGC	-0.759
AAUUUCG	-0.694
CCGCCAU	-0.883
CAACCUA	-0.657
UUUUACG	-0.763
GUGACAG	1.08
AGGGAUG	4.22
AAGGUUA	3.06
GUGGGGA	4.25
AGGUUUC	0.184
GUAGAGU	1.32
UCAAUCG	-0.526
UAGUCAC	-0.53

Sequence	RNAcompete 7-mer binding Z-score
UGAAUGA	0.0386
GCAUAGA	0.323
CCUGCUG	-0.799
AGUAGCU	-0.435
GCCAGGC	0.119
GAUACUG	-0.118
GCCAUAG	-0.195
CGAGCCA	-0.318
GCCGCCU	-0.748
ACAGAAU	-0.187
UGCGGUU	0.447
CUCAUUA	-0.938
AUGGCAC	0.468
AAAGCGG	1.53
ACCGCCG	-0.639
UAAGGGU	3.54
CUGCUUU	-0.945
UUGCAUA	-0.417
CAACUUU	-0.755
GUCCCGC	-0.497
CCGUGUG	-0.151
GGCAGGA	2.85
UACAGCC	-0.646

Sequence	RNAcompete 7-mer binding Z-score
CACCUUA	-0.825
GCCGCCA	-0.683
UGAUACU	-0.537
GUUGCAC	-0.136
AGGGCAA	2.35
CGUAGUU	-0.373
UACAUUA	-0.537
AUACCUC	-0.854
GUAGCCG	-0.151
AUAGCUU	-0.632
UUGUCAU	-0.704
GGGUACU	2.05
CUGUUGU	-0.759
UGGUUCA	0.326
GGAGUAC	1.49
GGAAAAU	1.15
CGCAGUA	-0.136
AUAACAC	-0.424
AAUUUCU	-0.69
UGCUACG	-0.5
UCUUCAC	-0.865
GCCGCGU	-0.57
GCACCUA	-0.577

Sequence	RNAcompete 7-mer binding Z-score
ACUAAGU	-0.22
UGAUAAC	-0.42
GUACACC	-0.256
GUCAACU	-0.256
UCGAAUA	-0.286
UGGGUCU	0.607
GCAAGCU	-0.544
CAAGGGG	3.03
CUCCUCA	-0.77
AGCAGCG	0.807
UUCUUAG	-0.65
ACCGCUU	-1.03
GCGCUGA	-0.424
UUCCGGG	0.341
UCAUCCU	-0.81
ACAGCGU	-0.0343
UGCUGAU	-0.471
GACCACU	-0.73
CUAUCAG	-0.602
CGCGAGG	0.833
CCACCCU	-0.817
ACUUCCC	-0.927
AGAAGAU	0.334

Sequence	RNAcompete 7-mer binding Z-score
GAAUUCC	-0.668
ACCCGUA	-0.719
UGCUGAG	0.148
GUUAGAC	0.264
GAAAGGC	2.13
GCACACC	-0.453
UGUGAAA	0.0349
CAUUUGU	-0.803
CGCUGCA	-0.439
CUACUGU	-0.806
UACUGAA	-0.362
AGUAUAC	-0.118
CGUCAAA	-0.151
ACAGACA	0.075
CUGGAUG	0.366
UUCUGGA	-0.278
GCUCUGC	-0.872
UAUAGCC	-0.442
AUGGAAC	2.02
GAAAACC	-0.435
CUUUACA	-0.719
GAUAAGU	0.0969
UGCCAGC	-0.511

Sequence	RNAcompete 7-mer binding Z-score
CGCUGAC	-0.795
UGGACUA	0.396
ACACAUC	-0.555
GCGGUCG	0.909
ACCCGUC	-0.912
UAGCGCC	-0.723
UCUAUGC	-0.763
ACGUCAC	-0.592
CUGUCGA	-0.617
GGUUUGA	0.548
ACGUUUG	-0.511
GCGAUCG	0.308
UUCUGGC	-0.723
AAAGGUG	3.5
GCACCAC	-0.373
AUGCACA	-0.0379
GUAGCGC	0.235
AGGGUGG	3.88
GGAUGCA	1.76
UGCGCGA	-0.384
UAAACAC	-0.369
UAUCCGU	-0.744
CAGUACU	-0.398

Sequence	RNAcompete 7-mer binding Z-score
AAGCGGU	1.03
CCGGAAA	0.00216
UCUGAGA	-0.53
GCCCGAA	-0.646
UCGCCGG	-0.362
GACAAAU	-0.103
GCGCCGC	-0.307
UUCCAAA	-0.562
CCAAUCU	-0.821
UAAAGGG	2.65
UAUAGGG	2.76
GUUUGGU	0.432
UUUUUUA	-0.581
AGUUAUA	-0.227
GAUCGCA	-0.26
UUACACC	-0.664
UCUAAUC	-0.679
ACGGUAU	0.847
CGUAGAU	-0.195
CCUUCGU	-0.803
GCGUGUC	-0.235
GACUUCA	-0.672
GGAAUGU	1.58

Sequence	RNAcompete 7-mer binding Z-score
UUCUUAC	-0.792
UAGAAAU	-0.337
GACAACU	-0.537
AUAAGGA	2.16
UUGGGCA	1.44
AGUGCGU	0.425
UCCCGAA	-0.879
UGGCCCA	-0.417
AGCGUGU	0.13
UUUCGAC	-0.701
CUGCCCC	-0.5
UCGCGUA	-0.468
GCUACGG	0.607
GUAGGCC	0.461
CCGUCUC	-0.77
ACGCCUA	-0.981
GAUGCCU	-0.81
GAUCGAC	-0.471
UCUGGGU	0.705
CUAAAAC	-0.606
AAGCGCG	0.286
UGAGUAC	0.177
